According to patent US12551573B2, “Compositions and methods for the targeting of PCSK9” (Scribe Therapeutics Inc., priority 2022, dated 2026):

B1: DOMAIN_2943 (protein, listed as Hylobates sp.)
chain: MMFQDSVAFEDVAVTFTQEEWALLDPSQKNLYRDVMQETFKNLASIGKKWKAQNIYVEYKNLRRNLRIVGERLFESKEGHQ
B2: DOMAIN_2962 (protein, listed as Hylobates sp.)
chain: MDSVAFEDVAINFTCEEWALLGPSQKSLYRDVMQETIRNLDCIGMTWQTHDIEEDQYKDLRRNLRCHMVERSCEIKDNSQC
B3: DOMAIN_2992 (protein, listed as Hylobates sp.)
chain: MIKSQESLTLEDVAVEFTWEEWQLLGPAQKDLYRDVMLENYSNLVSVGYQASKPDALFKLEQGEPWTVENDSHICPEIKKV
B4: DOMAIN_2994 (protein, listed as Hylobates sp.)
chain: MMQAQESLTLEDVAVDFTWEEWQFLSPAQKDLYRDVMLENYSNLVAVGYQARKPDALSKLERGEEPCTTEDEIYARICSDS
B5: DOMAIN_11029 (protein, listed as Mandrillus leucophaeus)
chain: WPESVTFEDVAVYFTQNQWASLDPAQRALYGEVMLENYANVASLVAFPFPKPALISHLERGEAPWGPDPWDTEIPRGISQG
B6: DOMAIN_2997 (protein, listed as Hylobates sp.)
chain: MESLTLEDVAVDFTWEEWQFLSPAQKDLYRDVMLENYSNLVAVGYQARKPDALSKLERGEEPCTTEDEIYARICSDSGGAS
B7: DOMAIN_3000 (protein, listed as Hylobates sp.)
chain: MINAQELLTLEDVTVEFTWEEWQLLDPFQKDLYRDVMLEIYSNLVSIGYQVSKPDALSKLERGEEPWTVEDERHSQICPEN
B8: DOMAIN_3087 (protein, listed as Hylobates sp.)
chain: MAHALVTFRDVAIDFSQKEWECLDTTQRKLYRDVMLENYNNLVSLGYSGSKPDVITLLEQGKEPCMAARDVTGRQYPGLLS
B9: DOMAIN_3092 (protein, listed as Hylobates sp.)
chain: MIEYQIPVSFKDVVVGFTQEEWHQLSPAQRALYRDVMLETYSNLVSVGYEGTKPDVILRLEQEEAPWIGEAACLGCHCWED
B10: DOMAIN_3094 (protein, listed as Hylobates sp.)
chain: MIEYQIPVSFKDVVVGFTQEEWHQLSPAQRALYRDVMLETYSNLVSVGYEGTKPDVILRLEQEEAPWIGEAACLGCHCWGI
B11: DOMAIN_3096 (protein, listed as Hylobates sp.)
chain: MIEYQIPVSFKDVVVGFTQEEWHQLSPAQRALYRDVMLETYSNLVSVGYEGTKPDVILRLEQEEAPWIGEAACLGCHCWGK
B12: DOMAIN_3123 (protein, listed as Hylobates sp.)
chain: LAPEDHGSSYEGSVSFRDVAIDFSREEWRHLDLSQRNLYRDVMLETYSHLLSVGYQVPEAEVVMLEQGKEPWALQGERPRH
B13: DOMAIN_3137 (protein, listed as Hylobates sp.)
chain: MNMEGLVMFQDLSIDFSQEEWECLDAAQKDLYRDVMMENYSSLVSLGLSIPKPDVISLLEQGKEPWMVSRDMLGGWCPDSE
B14: DOMAIN_3300 (protein, listed as Hylobates sp.)
chain: TQPDEDLHLQVEETQLVKESVTFKDVAIDFTLEEWRLMDPTQRNLHKDVMLENYRNLVSLGLAVSKPDMISHLENGKGPWV
B15: DOMAIN_17358 (protein)
chain: SQSPLTFGDVAVEFSGEEWAWLDSAQRSLHRSVMLENYRNLASLGLCLSKPEMISSLEQRKEPWAVKRKSTRGMHPDSQTL
modifications: source 1..81: note = Bos indicus x Bos taurus
B16: DOMAIN_3332 (protein, listed as Hylobates sp.)
chain: IHLTAWPQKSVTFEDVAVYFTQAEWDGLSPAQRTLYRDVMLENYGNVASLGFPLLKPAVISQLEGGGDLGGPSPLAAGTGL
B17: DOMAIN_3335 (protein, listed as Hylobates sp.)
chain: MAAMPLKARYQEMVTFEDVAVHFTKTEWTGLSPAQRALYRSVMLENFGNLTALGYPVPKPALISLLEGGDMDWGLEAQDDP
B18: DOMAIN_3336 (protein, listed as Hylobates sp.)
chain: MVTFEDVAVHFTKTEWTGLSPAQRALYRSVMLENFGNLTALGYPVPKPALISLLEGGDMDWGLEAQDDPPAERTKNVCKVI
B19: DOMAIN_3337 (protein, listed as Hylobates sp.)
chain: MPLKARYQEMVTFEDVAVHFTKTEWTGLSPAQRALYRSVMLENFGNLTALGYPVPKPALISLLEGGDMDWGLEAQDDPPAE
B20: DOMAIN_3344 (protein, listed as Hylobates sp.)
chain: PAQGPGEARPSRKRGRRPRALKFVDVAVYFSPEEWGCLRPAQRALYRDVMRETYGHLGALGCAGPKPALISWLERNTDDWE
B21: DOMAIN_3373 (protein, listed as Hylobates sp.)
chain: ADITLMSQAQDSRSILFQESVTFEDVAVNFTNREWQCLTYAQRHLYKDVMLENYRNMASLGFPFPKPPLISHLEREVDPCV
B22: DOMAIN_3557 (protein, listed as Macaca mulatta)
chain: MAHMAFRDVAVDFTQDEWRLLSPAQRTLYREVMLENYSNLVSLGISFSKPELITQLEQGKETWREEKNCSPATCPADPEPE
B23: DOMAIN_3575 (protein, listed as Macaca mulatta)
chain: MSQGSVTFRDVAIDFSQEEWKWLQPAQRDLYRCVMLENYGHLVSLGLSISKPDVVSLLEQGKEPWLGKRNVNRDLFSVSES
B24: DOMAIN_3585 (protein, listed as Macaca mulatta)
chain: MAAVSPTTRCQESVTFEDVAVVFTDEEWSHLVPIQRDLYKEVMLENYNSIVSLGLPVPQPDVIFQLKRGDKPWVVDLHGSE
B25: DOMAIN_3586 (protein, listed as Macaca mulatta)
chain: TLLTFRDVAIEFSLEEWKCLDPAQQNLYRDVMLENYRNLFSIGLTVSKPGLITCLEQRKEPWNVKRQEAVDGHPAMSSHVT
B26: DOMAIN_3602 (protein, listed as Macaca mulatta)
chain: MAPGLLTTREEALMAFRDVAVAFTQKEWKLLSSAQRTLYREVMLENYSHLVSLGIAFSKPKLIEQLEQGNEPWREENEHLL
B27: DOMAIN_3661 (protein, listed as Macaca mulatta)
chain: MDSVAFEDVAVTFTQEEWALLDPSQKTLYRDVMQETFRNLASVGKKWKAQNMYVEYENLKRNLRTFVGERLFESKEGHQHG

System: HBEGF locus
Format: cell-based, human
Conditions: high-throughput screen of dXR repression of the HBEGF gene; change in abundance of each domain in the library before and after diphtheria toxin selection

Row | Molecule | Log2 (fold change)
1 | B1 | 2.9574
2 | B2 | 2.1784
3 | B3 | 2.6341
4 | B4 | 3.1921
5 | B5 | 3.5748
6 | B6 | 2.9911
7 | B7 | 2.9522
8 | B8 | 2.7999
9 | B9 | 3.1954
10 | B10 | 3.7195
11 | B11 | 3.3962
12 | B12 | 3.1293
13 | B13 | 2.8303
14 | B14 | 3.0127
15 | B15 | 4.9878
16 | B16 | 2.8786
17 | B17 | 4.0001
18 | B18 | 3.5946
19 | B19 | 2.9398
20 | B20 | 3.2218
21 | B21 | 3.0768
22 | B22 | 2.4416
23 | B23 | 3.7842
24 | B24 | 2.4981
25 | B25 | 2.365
26 | B26 | 2.0444
27 | B27 | 2.4083
